Sequences with one replicate were seen in a single cluster, so their values are uncertain.
The sequences below were run on ATP (assay: switch fluorescence ratio, 500 uM ATP over buffer (Cy3 cluster intensity, sum of 5 cycles each) (fold (ratio)); higher = stronger signal-on switching upon ATP binding; sequences stand for … in TCGTCGGCAGCGTCAGATGTGTATAAGAGACAGTTTTTTTTTTTTTTTTTTTTTTTTT…TC). Details: aptamer strand: ATP DNA aptamer (quencher-CACCTGGGGGAGTATTGCGGAGGAAGG + anchor), 100 nM annealed; ATP concentration: 500 uM; one replicate.
Procedure, shortened: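 Clusters with intensities outside 100-1000 RFU were excluded. The remaining Cy3-labelled switching-strand clusters on a modified Illumina MiSeq flow-cell had been annealed to 100 nM quencher-labelled ATP aptamer and imaged in selection buffer, then after 15 min with 500 uM ATP at 22 °C, for five cycles separated by NaOH stripping and re-annealing. The fluorescence ratio, averaged per switch-domain sequence, is each cluster's summed target-cycle Cy3 intensity over its summed buffer-cycle Cy3 intensity.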
Sequence CATGTTCAAA has a switch fluorescence ratio of 0.96.
With CATGTTGCGC the switch fluorescence ratio was 1.02.
CATTACATTC was tested, and the switch fluorescence ratio was 1.01.
CATTACTTAG showed a switch fluorescence ratio of 1.01.
For CATTATAAGT, the switch fluorescence ratio was 0.987.
Work on CATTATACGT yielded a switch fluorescence ratio of 1.04.
For CATTATAGAC, the switch fluorescence ratio was 1.07.
CATTCAGGGC gave a switch fluorescence ratio of 1.01.
Sequence CATTCATCAA has a switch fluorescence ratio of 1.02.
Sequence CATTCCATGA has a switch fluorescence ratio of 1.05.
CATTCGCCAA showed a switch fluorescence ratio of 5.21.
Sequence CATTCGCCCT has a switch fluorescence ratio of 1.43.
For CATTGAACTT, the switch fluorescence ratio was 1.01.
CATTGAAGTT was tested, and the switch fluorescence ratio was 0.995.
In the case of CATTGCGATG, the switch fluorescence ratio is reported as 0.988.
CATTGCTCAG showed a switch fluorescence ratio of 1.02.
For CATTGGACT, the switch fluorescence ratio was 0.967.
With CATTGGGATT the switch fluorescence ratio was 0.979.
CATTGTATGC was tested, and the switch fluorescence ratio was 1.02.
CATTGTCGGA gave a switch fluorescence ratio of 0.966.
CATTTACGGT was tested, and the switch fluorescence ratio was 1.04.
For CATTTAGTTT, the switch fluorescence ratio was 0.98.
In the case of CATTTGGTAT, the switch fluorescence ratio is reported as 0.97.
With CATTTGTATA the switch fluorescence ratio was 1.
In the case of CATTTGTATC, the switch fluorescence ratio is reported as 1.05.
CATTTTAAAG gave a switch fluorescence ratio of 1.
CATTTTAT was tested, and the switch fluorescence ratio was 0.985.
In the case of CATTTTGGTG, the switch fluorescence ratio is reported as 1.03.
CATTTTTGGT was tested, and the switch fluorescence ratio was 0.974.
For CCAAAAATTA, the switch fluorescence ratio was 0.985.
In the case of CCAAAACGGA, the switch fluorescence ratio is reported as 1.01.
Sequence CCAAAGGACG has a switch fluorescence ratio of 0.944.
In the case of CCAAAGTTGC, the switch fluorescence ratio is reported as 2.44.
CCAAATTTGT showed a switch fluorescence ratio of 1.01.
CCAACAAGA gave a switch fluorescence ratio of 1.27.
CCAACCCTTA gave a switch fluorescence ratio of 1.03.
For CCAACCGATA, the switch fluorescence ratio was 1.38.
In the case of CCAACGGGCC, the switch fluorescence ratio is reported as 1.25.
With CCAACTCAGA the switch fluorescence ratio was 1.06.
For CCAAGAATTC, the switch fluorescence ratio was 1.03.
For CCAAGGCTGC, the switch fluorescence ratio was 1.6.
Sequence CCAAGTCACA has a switch fluorescence ratio of 1.1.
In the case of CCAAGTGACG, the switch fluorescence ratio is reported as 0.971.
In the case of CCAAGTGTTT, the switch fluorescence ratio is reported as 1.02.
With CCAATAAACT the switch fluorescence ratio was 1.
Work on CCAATCAGCA yielded a switch fluorescence ratio of 1.1.
Sequence CCAATCGCCA has a switch fluorescence ratio of 1.8.
In the case of CCAATGGTTT, the switch fluorescence ratio is reported as 0.991.
Sequence CCAATGTACA has a switch fluorescence ratio of 1.03.
Sequence CCAATTATAG has a switch fluorescence ratio of 1.06.
With CCAATTTAAC the switch fluorescence ratio was 1.36.
For CCACAAATAA, the switch fluorescence ratio was 1.05.
CCACACCACT was tested, and the switch fluorescence ratio was 1.38.
In the case of CCACCAAGTT, the switch fluorescence ratio is reported as 1.13.
Work on CCACCCTCCA yielded a switch fluorescence ratio of 1.22.
CCACCGGTCC showed a switch fluorescence ratio of 1.31.
In the case of CCACCTAACT, the switch fluorescence ratio is reported as 1.13.
With CCACGATTGA the switch fluorescence ratio was 1.03.
Work on CCACGGAAAG yielded a switch fluorescence ratio of 0.986.
In the case of CCACGGATCG, the switch fluorescence ratio is reported as 1.05.
CCACGGGGAT showed a switch fluorescence ratio of 0.989.
CCACGGGGGC showed a switch fluorescence ratio of 1.04.
In the case of CCACGGTACG, the switch fluorescence ratio is reported as 1.01.
In the case of CCACGTGTG, the switch fluorescence ratio is reported as 1.05.
With CCACGTTTTT the switch fluorescence ratio was 1.
CCACTAGGAT gave a switch fluorescence ratio of 1.02.
For CCACTATTTG, the switch fluorescence ratio was 0.96.
CCACTCAGAC gave a switch fluorescence ratio of 1.19.
In the case of CCACTCCTTT, the switch fluorescence ratio is reported as 1.02.
CCACTCTGGT was tested, and the switch fluorescence ratio was 1.05.
CCACTGAGTC was tested, and the switch fluorescence ratio was 1.03.
Sequence CCACTGTCGC has a switch fluorescence ratio of 1.12.
CCAGAACACT showed a switch fluorescence ratio of 1.05.
Work on CCAGAAGCGC yielded a switch fluorescence ratio of 0.985.
With CCAGAATCAA the switch fluorescence ratio was 1.05.
Sequence CCAGAGAAGC has a switch fluorescence ratio of 1.06.
CCAGAGACCT was tested, and the switch fluorescence ratio was 1.01.
With CCAGAGCCCA the switch fluorescence ratio was 1.35.
For CCAGAGGTG, the switch fluorescence ratio was 1.82.
CCAGAGTGGG gave a switch fluorescence ratio of 1.07.
CCAGCGGAAA gave a switch fluorescence ratio of 1.04.
Sequence CCAGCGGGG has a switch fluorescence ratio of 1.06.
Work on CCAGCGTTCT yielded a switch fluorescence ratio of 1.05.
CCAGCTTATG showed a switch fluorescence ratio of 0.988.
In the case of CCAGGAAG, the switch fluorescence ratio is reported as 1.02.
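Further: ATP exposure 15 min at 22 °C before imaging.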
